From ChEMBL document CHEMBL1201862, “PubChem BioAssay data set” (2004) come the findings set out here.

The structures appear in SMILES notation.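 Five compound concentrations were applied to cells in 96-well plates for 48 hours; endpoints were derived by simple linear interpolation of the resulting dose-response curve. GI50 marks 50% less growth.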 The source made the active and inactive calls. Cut-off read from the data, not from the text of the source: active = GI50 up to about 1.1 µM and inactive = higher.

This assay deals with NCI-H322M. In words: growth of human tumour cells (NCI), 48 h.
As to `c1ccc(CCCN2C3CCC2CN(CCOC(c2ccccc2)c2ccccc2)C3)cc1`, the GI50 is inactive: 12.7 µM.

As for `O=C(O)/C=C\C(=O)Nc1ccc2c(c1)-c1ccccc1C2`, the GI50 was inactive: 45.6 µM. As to `N#Cc1cc(-c2nc3ccc(F)cc3s2)ccc1N`, the GI50 is inactive: > 100 µM.

For `COc1cc2c(cc1OC)C13CCN4C=C5CCOC6CC(=O)N2C1C6C5CC43` (centres undefined), the GI50 was inactive: > 100 µM. As for `Cc1ccc(NC(=O)/C(C#N)=C/c2ccccc2)c(C)c1`, the GI50 was inactive: > 100 µM.

On to `NC(=O)C(N)CC12CC3CC(CC(C3)C1)C2` (centres undefined), for which the GI50 is inactive: 42.3 µM. Turning to `Clc1cc2nc(C3CCCO3)[nH]c2cc1Cl` (centres undefined), the GI50 was inactive: 48.6 µM. In the case of `O=P(O)(O)CC1OC(CO)C(O)C1O` (centres undefined), the GI50 is inactive: > 100 µM. The value for `C/C(CC(=O)Nc1ccc(C)c(C)c1)=N\N(c1ccccc1)c1ccccc1` was inactive: > 100 µM. Regarding `COc1ccc2c(c1)CCCN1CCc3ccccc3C21` (centres undefined), the GI50 was inactive: 83.6 µM. Take `OC(COc1ccc(Cl)cc1Cl)CN1CCCC1` (centres undefined): the GI50 was inactive: > 100 µM. On to `Oc1cc2cc(-c3ccccc3)[nH]c2c2ccccc12`, for which the GI50 was inactive: 70.6 µM. The value for `Cn1c2ccccc2c(=NNc2ccc(S(N)(=O)=O)cc2)c2ccccc21` was inactive: 24.7 µM; that for `Cc1ccc(C)c(NC(=O)CCc2nnc(S)[nH]2)c1` was inactive: > 100 µM. `COc1cc2c3cc1Oc1c(OC)c(OC)cc4c1C(=NCC4)Cc1ccc(cc1)Oc1cc(ccc1O)C[C@H]3N(C)CC2`: the GI50 was inactive: 18.4 µM.

Consider `CC(C)=CCC[C@@H](C)C1=C(Nc2ccccc2F)C(=O)C(C)=C(O)C1=O`, for which the GI50 was inactive: 4.72 µM. In the case of `CCOC(=O)NNC(=O)NCc1ccccc1CNC(=O)NNC(=O)OCC` it was inactive: > 100 µM. As for `Cc1cccc(N2C(=O)C(Cl)=C(Cl)C2=O)c1`, the GI50 is inactive: > 100 µM. For the compound `CC(=O)CC(=O)Nc1ccc(OS(N)(=O)=O)cc1`, the GI50 is inactive: > 100 µM. Take `O=C(CC(C(=O)c1cccs1)c1ccsc1)c1cccs1` (centres undefined): the GI50 is inactive: 71.1 µM. Consider `Nc1nc(N)c2ncn(CC3CCC(CO)C3)c2n1` (centres undefined), for which the GI50 was inactive: > 100 µM. As for `O=C(NNC(=O)c1nsc2ccccc12)c1ccc(Cl)cc1`, the GI50 is inactive: 19.4 µM. With `Cc1ccc(C2=NN(C)COC2C(F)(F)F)cc1` (centres undefined), the GI50 was inactive: > 100 µM. On to `COc1ccccc1/N=N/C(C(=O)c1ccccc1)C(=O)c1ccccc1`, for which the GI50 was inactive: 13.6 µM. In the case of `CSc1nc2c(c(=O)[nH]1)N=C(c1ccc([N+](=O)[O-])cc1)CC(c1ccccc1)N2` (centres undefined) it was inactive: 99.8 µM. With `CCCCCCCCC[C@@H]1C[C@@H]2CCC3C(C(=O)OCCCCNC(=O)OCc4ccccc4)=C(C)N=C(N1)N32` (some centres undefined), the GI50 is inactive: 12.3 µM. As for `CCN1C(=O)N2C(OC)c3ccccc3C(Br)C2(OC)C1=O` (centres undefined), the GI50 was inactive: > 100 µM. In the case of `C=C=C[P+](c1ccccc1)(c1ccccc1)c1ccccc1`, the GI50 is inactive: 35.3 µM. As to `O=C(CCC(=O)Nc1cccc(Cl)c1)CC(=O)c1ccc(Cl)cc1`, the GI50 is inactive: > 100 µM. Regarding `CC(C)(C)OC(=O)NC(CSCc1ccc(C(=O)c2ccccc2)cc1)C(=O)O` (centres undefined), the GI50 is inactive: > 100 µM. The value for `COc1ccc(/C=C/c2nsc(/C=C/c3ccc(OC)cc3)n2)cc1` was inactive: > 100 µM. Regarding `CC(=N/NC(=S)N1CCCCC1)/C(=N\NC(=S)N1CCCCC1)c1ccccc1`, the GI50 is inactive: 1.88 µM. With `CC1=C2C(=O)c3ccccc3C(=O)[C@H]2C[C@@H](N2CCCC2=O)O1`, the GI50 was inactive: > 100 µM. For the compound `O=c1[nH]nc(-c2ccc([N+](=O)[O-])cc2)n1/N=C/c1ccc([N+](=O)[O-])cc1`, the GI50 is inactive: > 100 µM.

In the case of `O=C1CC2CCC(C1)[S+]2[O-]` (centres undefined), the GI50 was inactive: > 100 µM. In the case of `COc1ccc(N2C(=O)[C@@H](N=[N+]=[N-])[C@@H]2[C@H]2COC(C)(C)O2)cc1` it was inactive: > 100 µM; in that of `CCOC(=O)C(C)Sc1nnc(COc2ccccc2OC)n1-c1ccccc1` (centres undefined), inactive: > 100 µM; in that of `CSc1nc(-c2ccc(C)cc2)c(C#N)c(=O)[nH]1`, inactive: > 100 µM.

For the compound `Cc1ccc([N+](=O)[O-])c2c(NCCC[N+](C)(C)[O-])c3ccccc3nc12`, the GI50 is inactive: 1.56 µM.

For `O=c1cc(CNC2CC3CCC2C3)[nH]c(=O)[nH]1` (centres undefined), the GI50 was inactive: > 100 µM. In the case of `C=CCNC(=S)NNC(=O)c1c(C)nc2sccn12` it was inactive: > 100 µM. For the compound `CN(C)CC1CC/C(=C\c2ccc(Cl)c(Cl)c2)C1=O` (centres undefined), the GI50 was inactive: > 61.1 µM. Take `CC1(O)C(C)(O)C(C)(O)C1(C)O` (centres undefined): the GI50 was inactive: > 100 µM. Consider `Cn1cnc([N+](=O)[O-])c1Sc1nncc2[nH]cnc12`, for which the GI50 was inactive: > 100 µM. As to `Cn1c(COC(=O)NC2CCCCC2)c(COC(=O)NC2CCCCC2)c2ccc3cc(C=O)ccc3c21`, the GI50 is inactive: > 100 µM. On to `O=C(O)C(CS)Nc1c2ccccc2[n+]([O-])c2ccccc12` (centres undefined), for which the GI50 was inactive: > 100 µM. `Cc1cc(=O)oc2c(CNC(CC(C)C)C(=O)O)c(O)ccc12` (centres undefined): the GI50 was inactive: > 100 µM. The value for `C/C=C(\NC(=O)C(CCCCN)NC(=O)C(C)NC(=O)C1CSC(C)C(NC(=O)C2CSCC(NC(=O)C(C)NC(=O)C(N)C(C)CC)C(=O)NC(CCCCN)C(=O)NC(Cc3ccccc3)C(=O)NC(CC(C)C)C(=O)N2)C(=O)N2CCCC2C(=O)NCC(=O)N1)C(=O)NCC(=O)NC1CSCC2NC(=O)C(Cc3ccc(O)cc3)NC(=O)C(CSC=CNC2=O)NC(=O)C(CC(N)=O)NC(=O)C(Cc2ccccc2)NC1=O` (centres undefined) was inactive: > 100 µM; that for `O=[N+]([O-])c1ccc(C2=NOC(c3ccccc3)N2C23CC4CC(CC(C4)C2)C3)cc1` (centres undefined) was inactive: 43.3 µM; that for `COC(=O)c1c(-c2ccc(Cl)cc2)cc2c3ccccc3n(C)c2c1C(=O)OC` was inactive: > 100 µM. On to `CC(=O)OCC1OC(n2c(C#N)cc(=O)[nH]c2=O)CC1OC(C)=O` (centres undefined), for which the GI50 is inactive: > 100 µM. With `COc1ccc(C(=O)N/N=C2\C(=O)c3c(C)cc(C)cc3CC2(C)C)cc1`, the GI50 is inactive: 31.3 µM.

Regarding `CC(=O)OC(C(=O)NNC(=O)OC(C)(C)C)c1ccccc1` (centres undefined), the GI50 was inactive: > 100 µM. Turning to `CCOP(=O)(CC(=O)C1CC1)OCC`, the GI50 was inactive: > 100 µM. Regarding `COc1ccc(C2SCC(=O)N2NC(=O)c2ccncc2)cc1F` (centres undefined), the GI50 was inactive: > 100 µM.

For `CC1(C)C[C@@H]2C1CCC1(C)CC2(O)CC[C@H]1O` (some centres undefined), the GI50 was inactive: > 100 µM.

Regarding `COc1cc2c(c(OC)c1OC)-c1ccc(SC)c(=O)cc1[C@@H](NC(=O)c1ccc(C#N)cc1)CC2`, the GI50 is active: < 0.01 µM. Consider `Cc1c2cccc-2c(N(C)C)cc2c1[nH]c1ccccc12`, for which the GI50 is inactive: 8.69 µM. In the case of `C[C@]12CC[C@H]3[C@@H](CCC4=CC(=O)CC[C@@]43C)[C@@H]1CC[C@@H]2C(=O)COS(=O)(=O)c1ccc(Br)cc1`, the GI50 was inactive: 18.5 µM.
